Test results taken from US9212153B2, “Inhibitors of beta-secretase” (Vitae Pharmaceuticals, Inc., priority 2009, dated 2015).

target: ectodomain of BACE (aa 1-454) fused to a myc-his tag (Homo sapiens (Human), UniProt P56817); assay type: biochemical; details: not given

SMILES	IC50 [nM]
COC1CCC2(CC1)Cc1ccc(C#CC3CC3)cc1C21N=C(N)N(Cc2ncco2)C1=O (stereo not shown) [Compound 300]	14.8

same assay, conditions: footnote b: determined according to protocols described in Example 435; read-out: IC50

SMILES	IC50 [nM]
CO[C@H]1CC[C@]2(CC1)Cc1c(F)ccc(-c3cccc(C#N)c3)c1C21N=C(N)N(C)C1=O (stereo partly shown) [Compound 251]	13500
COC1CCC2(CC1)Cc1ccc(C#CC3CC3)cc1C21N=C(N)N(CCN(C)S(C)(=O)=O)C1=O (stereo not shown) [Compound 308]	9.3
CC(C)N1C(=O)C2(N=C1N)c1cc(-c3cccnc3F)ccc1CC21CCC(OC(F)F)CC1 (stereo not shown) [Compound 289]	36.1
COC1CCC2(CC1)Cc1ccc(CCC3CC3)cc1C21N=C(N)N(CCN(C)C)C1=O (stereo not shown) [Compound 313]	12.3
N#Cc1cccc(-c2ccc3c(c2)C2(CCSC(N)=N2)C2(CCc4ccccc4CC2)C3)c1 (stereo not shown) [Compound 442]	1170
CN1C(=O)C2(N=C1N)c1cc(Cl)ccc1C[C@]21CC[C@@H](OC(F)F)CC1 (stereo partly shown) [Compound 275]	20
CC(C)N1C(=O)C2(N=C1N)c1cc(C#N)ccc1C[C@]21CC[C@@H](OC(F)F)CC1 (stereo partly shown) [Compound 283]	265
COC1CCC2(CC1)Cc1ccc(CCC3CC3)cc1C21N=C(N)N(Cc2cccc(N(C)C)c2)C1=O (stereo not shown) [Compound 368]	24.8
COC1CCC2(CC1)Cc1ccc(CCC3CC3)cc1C21N=C(N)N(Cc2ncco2)C1=O (stereo not shown) [Compound 314]	11.2
CO[C@H]1CC[C@]2(CC1)Cc1ccc(-c3cnc(C)nc3)cc1C21N=C(N)N(C(C)C)C1=O (stereo partly shown) [Compound 548]	23
COC1CCC2(CC1)Cc1ccc(OCC3CC3)cc1C21N=C(N)N(CCF)C1=O (stereo not shown) [Compound 525]	6.8
CCCSc1ccc2c(c1)C1(N=C(N)N(C)C1=O)C1(CCC(OC)CC1)C2 (stereo not shown) [Compound 541]	4
COC1CCC2(CC1)Cc1ccc(CCC3CC3)cc1C21N=C(N)N(Cc2ccc(C(F)(F)F)cn2)C1=O (stereo not shown) [Compound 365]	24.3
COC1CCC2(CC1)C(C)(C)c1ccc(-c3cccc(C#N)c3)cc1C21N=C(N)N(C)C1=O (stereo not shown) [Compound 295]	3160
COCCOc1ccc2c(c1)C1(N=C(N)N(CC(F)(F)F)C1=O)[C@]1(CC[C@H](OC)CC1)C2 (stereo partly shown) [Compound 550]	77
COC1CCC2(CC1)Cc1ccc(CCC(F)(F)F)cc1C21N=C(N)N(CCF)C1=O (stereo not shown) [Compound 527]	16
COC1CCC2(CC1)Cc1ccc(OCC3CC3)cc1C21N=C(N)N(CCC(F)(F)F)C1=O (stereo not shown) [Compound 528]	10
COC1CCC2(CC1)Cc1ccc(C#CC3CC3)cc1C21N=C(N)N(CCC(N)=O)C1=O (stereo not shown) [Compound 304]	4.7
COC1CCC2(CC1)Cc1ccc(OCC3CC3)cc1C21N=C(N)N(CC(F)F)C1=O (stereo not shown) [Compound 526]	9
CO[C@H]1CC[C@]2(CC1)Cc1ccc(CCC(C)C)cc1C21N=C(N)N(C)O1 (stereo partly shown) [Compound 501]	15.8
COCC(C)N1C(=O)C2(N=C1N)c1cc(Br)ccc1CC21CCC(OC)CC1 (stereo not shown) [Compound 301]	139
COC1CCC2(CC1)Cc1ccc(C#CC3CC3)cc1C21N=C(N)N(CCF)C1=O (stereo not shown) [Compound 307]	5.3
CO[C@H]1CC[C@]2(CC1)Cc1ccc(OCC3CC3)cc1[C@@]21N=C(N)N(CC(F)(F)F)C1=O [Compound 560]	3110
COC1CCC2(CC1)Oc1ccc(-c3cccc(C#N)c3)cc1C21CCSC(N)=N1 (stereo not shown) [Compound 440]	730
COC1CCC2(CC1)Cc1ccc(C#CC3CC3)cc1C21N=C(N)N(CCC(=O)O)C1=O (stereo not shown) [Compound 316]	15.6
COC1CCC2(CC1)Cc1ccc(C#CC3CC3)cc1C21N=C(N)N(Cc2cnc3ccccc3n2)C1=O (stereo not shown) [Compound 327]	5.4
COC1CCC2(CC1)Cc1ccc(CCC3CC3)cc1C21N=C(N)N(CCc2nccs2)C1=O (stereo not shown) [Compound 378]	19.6

same assay, conditions: read-out: IC50

SMILES	IC50 [nM]
CCCCCc1ccc2c(c1)C1(N=C(N)N(C)O1)[C@]1(CC[C@H](OC)CC1)C2 (stereo partly shown) [Compound 493]	29.8
COC1CCC2(CC1)Cc1ccc(CCC3CC3)cc1C21N=C(N)N(Cc2cscn2)C1=O (stereo not shown) [Compound 375]	8.8
COc1ccc(COc2ccc3c(c2)C2(N=C(N)N(C)O2)[C@]2(CC[C@H](OC)CC2)C3)cc1 (stereo partly shown) [Compound 504]	807
